Data reported in PubChem BioAssay AID1347073 (National Center for Advancing Translational Sciences (NCATS), 2019).
Among all 45,000 compounds or so, about 200 (0.44%) were called active. Roughly 7% stayed inconclusive and do not appear here. Calls follow the shape of the dose curve; as a rule, active = well fitted activation curve with a large enough effect; inconclusive = small, poorly fitted or top-dose-only effect; inactive = no such curve, though single readings can be large or run the other way. This is one part of the list.

Test: qHTS of TDP-43 Inhibitors: NCGC Sytravon Library Screen; also: 0% is about no effect; nearly all actives have a fitted effect of over 55% in size
Conditions: yeast TDP-43 toxicity rescue, BacTiter-Glo growth, 24 h; series mostly up to 46.1 µM; growth rescue (activation): at the top concentration
Outline: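 TDP-43-expressing yeast, pregrown in raffinose, seeded at OD600 0.02 in galactose medium with compound for 24 hr at 30 deg C. Growth read by BacTiter-Glo luminescence, so rescue of toxicity appears as activation.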

Row | Structure (SMILES) | growth rescue (activation)
1 | O=C(CN1C(=O)COc2ccccc21)NCCCN1CCOCC1 | inactive: -3.08%
2 | NC(=S)N=Nc1c(O)n(CCCl)c2ccc(Br)cc12 | inactive: 10.1%
3 | O=C(COC(=O)c1cccc([N+](=O)[O-])c1)Nc1ncc(Br)s1 | inactive: 13.6%
4 | O=C(COc1ccc([N+](=O)[O-])cc1Cl)Nc1ccc2[nH]c(=O)[nH]c2c1 | inactive: 1.55%
5 | CSCC[C@H](NC(=O)COc1cc2c(c3oc(=O)c(C)c(C)c13)CCC(C)(C)O2)C(=O)O | inactive: -8.15%
6 | Cn1cccc1CNC(=S)Nc1ccccc1Cl | inactive: -30.4%
7 | Cc1ccc2nc(-c3ccc(NC(=O)COC(=O)c4ccco4)cc3)sc2c1 | inactive: 15.7%
8 | COCCn1c(SCC(=O)Nc2ccccc2)nnc1-c1ccoc1C | inactive: 3.67%
9 | COC(=O)CCC(=O)Nc1sc(Cc2ccccc2)c(C)c1C(N)=O | inactive: -10.9%
10 | CCN(CC)S(=O)(=O)c1cc(NS(=O)(=O)c2cccs2)ccc1C | inactive: 12.4%
11 | COc1ccccc1N(C)S(=O)(=O)c1ccc(C(=O)O)cc1 | inactive: 7.65%
12 | CC(C)CN(C(=O)CN1CCN(c2ccccc2O)CC1)c1c(N)n(CC(C)C)c(=O)[nH]c1=O | inactive: 7.56%
13 | CCCS(=O)(=O)NC(=O)C1(C)CCCN(C(=O)COCc2ccccc2)C1 (stereo not drawn) | inactive: -3.69%
14 | COc1ccc(NC(=O)CSc2nnnn2C2CCCCC2)c(OC)c1 | inactive: 12.9%
15 | COC(=O)c1c(NC(NC(=O)c2ccccc2)(C(F)(F)F)C(F)(F)F)sc2c1CCN(C)C2 | inactive: -4.56%
16 | CC(=O)COc1ccc2cc(-c3ccccc3)c(=O)oc2c1 | inactive: 5.08%
17 | Nc1nc(NCCCN2CCOCC2)nc(Nc2ccccc2F)c1[N+](=O)[O-] | inactive: -6.64%
18 | Cc1cc(C)cc(-n2c(=O)c3ccccc3n(CC(=O)NCC3CCCO3)c2=O)c1 (stereo not drawn) | inactive: -3.61%
19 | O=[N+]([O-])c1ccccc1Oc1cnc2ccccc2n1 | inactive: 9.45%
20 | O=C(NCCCc1ccncc1)C1CCC(=O)N(Cc2ccc(Cl)cc2)C1 (stereo not drawn) | inactive: -5.36%
21 | Cc1ccc(/C=N/NC(=O)c2ccco2)cc1 | inactive: 13.2%
22 | Cc1cccc(C)c1N=C1NN=C(c2ccccc2F)CS1 | inactive: 5.08%
23 | COc1cc(C(=O)Nc2ccc(S(=O)(=O)N3CCOCC3)cc2)c([N+](=O)[O-])cc1OC | inactive: 6.83%

Row | Structure (SMILES) | growth rescue (activation)
24 | O=C(O)CCC(=O)NCCc1cccc(Cl)c1 | inactive: 5.64%
25 | O=C(O)CC(NC(=O)Nc1ccccc1)c1ccc(OC2CCCC2)cc1 (stereo not drawn) | inactive: 7.66%
26 | CCc1ccc(-c2csc(-c3c[nH]c4ccccc34)n2)cc1 | inactive: 48.9%
27 | COc1ccc(-n2nnc3c(SCC(=O)N4CCCc5ccccc54)ncnc32)cc1 | inactive: -4.82%
28 | O=C(CSc1nc(O)c(C2CCCCC2)c(=O)[nH]1)Nc1ccc(F)cc1 | inactive: 21.4%
29 | Cc1csc(NC(=O)/C=C/c2ccc3c(c2)OCO3)n1 | inactive: 10.7%
30 | O=C(O)C1C2CCC(C2)C1C(=O)Nc1cccc([N+](=O)[O-])c1 (stereo not drawn) | inactive: 4.53%
31 | CCCNC(=O)NC(=O)CSc1nncs1 | inactive: -5.12%
32 | CCN(CC(=O)Nc1ccccc1C(F)(F)F)C(=O)CCc1c(C)[nH]c(=O)c(C#N)c1C | inactive: -20.1%
33 | CCCSc1nsc(SCCC)c1C(N)=O | inactive: 28.3%
34 | Cc1cccc(-n2c(-c3ccccc3)c[nH]c2=S)c1C | inactive: 9.44%
35 | COc1ccc(C(=O)NNC(=O)CSc2nnnn2-c2cc(OC)cc(OC)c2)cc1 | inactive: -10.8%
36 | Cc1cccc(C)c1NC(=O)CN(C)C(=O)c1ccccc1C(=O)N(C)Cc1ccccc1 | inactive: 11.9%
37 | CCOc1ccc(C2c3[nH]c4ccccc4c3CCN2Cc2cccn2-c2ncccn2)cc1 (stereo not drawn) | inactive: -3.72%
38 | Cc1cccc(NC(=O)CN2CCCCCC2)c1 | inactive: 16.5%
39 | Cc1ccc(C)c(Nc2ncnc(N)c2[N+](=O)[O-])c1 | inactive: -3.83%
40 | COc1ccc(/C=C/c2nc3ccccc3c(=O)n2-c2cccc(C(=O)O)c2)cc1 | inactive: -9.75%
41 | NC(c1csc(Nc2ccc(C(=O)NCCO)cc2)n1)C1CCCCC1 (stereo not drawn) | inactive: -2.82%
42 | COCCN(CCOC)S(=O)(=O)c1ccc(C(=O)Nc2ccc([N+](=O)[O-])cc2OC)cc1 | inactive: 13.1%
43 | O=S(=O)(NCCCN1CCOCC1)c1ccc(Cl)cc1 | inactive: 1.7%
44 | O=C(NC1(C(F)(F)F)NC(=O)N(c2ccccc2F)C1=O)c1ccncc1 (stereo not drawn) | inactive: 11.4%
45 | Cc1cc(C(=O)NN=C(CCC(=O)O)c2cccs2)c(C)o1 | inactive: 4.7%
46 | O=C(N/N=C/c1ccc[nH]1)c1ccccc1OCc1ccc(F)cc1 | inactive: -10.8%

Row | Structure (SMILES) | growth rescue (activation)
47 | COc1ccc(S(=O)(=O)Nc2ccc(S(=O)(=O)NCC3CCCO3)cc2)cc1 (stereo not drawn) | inactive: 3.2%
48 | Cc1ccc(S(=O)(=O)N2CCOCC2)cc1C(=O)N1CCN(c2ccc(C(F)(F)F)cn2)CC1 | inactive: -0.929%
49 | Cc1[nH]c2ccccc2c1C(=O)COC(=O)C1CC(O)CN1S(=O)(=O)c1ccc(Cl)cc1 (stereo not drawn) | inactive: 2.89%
50 | O=C(NCCCN1CCOCC1)C1CC(=O)N(c2ccccc2)C1 (stereo not drawn) | inactive: 17.3%
51 | COc1ccc2[nH]c(=O)c(CN(Cc3nnnn3CCc3ccccc3)CC3CCCO3)cc2c1 (stereo not drawn) | inactive: 0.1%
52 | COc1ccc(-n2nc(C(=O)NCC(=O)N3CCN(Cc4ccccc4)CC3)c3ccccc3c2=O)c(OC)c1 | inactive: 21.7%
53 | N#C/C(=C\c1ccncc1)c1nc2ccccc2c(=O)[nH]1 | inactive: -1.17%
54 | CCOc1ccc(C(=O)CCN2CCCCC2)cc1 | inactive: 19.8%
55 | Cc1ccc(CSCCNC(=O)c2ccc(C)cc2)cc1 | inactive: -40.7%
56 | CCOC(=O)c1cc(-c2ccccc2)n(CC(=O)Nc2ccc(OCC)cc2)c1C | inactive: 16.8%
57 | CN(CCC1CCCCO1)C(=O)c1cc(COc2ccc(F)cc2F)on1 (stereo not drawn) | inactive: 18.5%
58 | NC(=S)Nc1cnc2ccccc2c1 | inactive: -0.664%
59 | COc1cc(/C=N/Nc2ccccc2)ccc1OC(=O)c1cccs1 | inactive: 27.8%
60 | COc1cccc(C2C3=C(CCCC3=O)Nc3[nH]n(-c4ccccc4)c(=O)c32)c1 (stereo not drawn) | inactive: 9.83%
61 | CCCOc1ccc(N2C(=O)CC(NCc3cccnc3)C2=O)cc1 (stereo not drawn) | inactive: -4.87%
62 | COc1ccc(N2CCN(C(=O)c3cc(=O)c4cc(C)c(C)cc4o3)CC2)cc1 | inactive: 3.57%
63 | Cc1ccccc1CC1C(=O)Nc2ccc(Br)cc21 (stereo not drawn) | inactive: 22.7%
64 | O=S(=O)(NCCCc1ccccc1)c1cccc2nsnc12 | inactive: 18.1%
65 | CN(C)S(=O)(=O)c1cc(NC(=O)c2ccc(-n3ccnc3)c([N+](=O)[O-])c2)ccc1Cl | inactive: 10%
66 | Cc1nn(-c2ccccc2)c(C)c1/C=N/NC(=O)CSc1nnc(SCc2ccccc2Cl)s1 | inactive: 2.52%
67 | CCOc1ccc(CC(=NCCO)C2=C(O)CC(C)(C)CC2=O)cc1OCC | inactive: -0.515%
68 | COc1ccc(NC(=O)c2cccnc2SC)cc1OC | inactive: 11.1%
